# The supplement of paper PMC4723716
# ± gives the uncertainty stated by the source. Over roughly 9,900 compounds, “viability index relative to DMSO control” has its median near 1; the lowest 2% begin near 0.85. Some of the results follow.
# Tested on: Plasmodium falciparum NF54 stage V gametocytes
# Assay: viability index relative to DMSO control (fraction); higher = less gametocyte killing
# Settings: 2.5 µM, incubation time: 72 h
# Procedure, shortened: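 P. falciparum NF54 stage V gametocytes (serum-free medium, 0.75% gametocytemia, 1.25% hematocrit) were exposed to compound at 2.5 µM for 72 hr at 37°C under low oxygen, then stained with MitoTracker Red CMXRos and saponin for one to two hours. Red particles of 20–70 µm2 in one field per well were counted, and the viability index is that count scaled to the plate mean of solvent-only wells.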
# [1] = library set: Broad Institute DOS
# [2] = library set: Broad Institute Blood Stage
Structure (SMILES),viability index [1],viability index [2]
O=C(C[C@H]1C[C@@H]2c3cc(NS(=O)(=O)c4ccccc4)ccc3O[C@@H]2[C@@H](CO)O1)N1CCOCC1,1.09 ± 0.017,–
COc1cccc(NC(=O)C[C@H]2CC[C@H]3[C@@H](COc4ccc(NC(=O)C5CC5)cc4C(=O)N3C)O2)c1,1.13 ± 0.018,–
CS(=O)(=O)Nc1ccc2c(c1)[C@H]1C[C@@H](CC(=O)NCc3cc(F)ccc3F)O[C@@H](CO)[C@H]1O2,1.07 ± 0.057,–
O=C(CC(F)(F)F)N1C[C@H]2[C@@H](c3ccccc31)[C@@H](CO)N2Cc1cccnc1,1.04 ± 0.028,–
COc1ccccc1CN1CC[C@@H]2[C@H](CO)Nc3ccc(-c4cccc(C(=O)N(C)C)c4)cc3[C@@H]21,0.841 ± 0.072,–
CNC[C@H]1Oc2ccc(N)cc2CC(=O)N([C@H](C)CO)C[C@H]1C,1.01 ± 0.13,–
O=C(C[C@H]1CC[C@H](NS(=O)(=O)c2ccc(F)cc2)[C@@H](CO)O1)N1CCN(c2ccccc2)CC1,1.09 ± 0.13,–
Cc1noc(C)c1S(=O)(=O)N(C)C[C@@H]1Oc2c(NS(=O)(=O)c3cn(C)cn3)cccc2C(=O)N([C@H](C)CO)C[C@@H]1C,1.04 ± 0.038,–
COc1ccc(-c2cccc(-c3nc(C(=O)N(C)C)cc4c3[C@H](CCO)N([S@@](=O)C(C)(C)C)C4)c2)cc1,1.05 ± 0.057,–
O=C(CC(F)(F)F)N1C[C@H]2[C@@H](c3ccccc31)[C@@H](CO)N2CC1CCOCC1,1.07 ± 0.066,–
O=C(c1ccccn1)N1CC2(C1)[C@H](c1ccccc1)[C@@H](CO)N2C(=O)C1CCCCC1,1.02 ± 0.076,–
C/C=C/c1ccc2n(c1=O)C[C@@H]1[C@@H](CO)[C@H](C(=O)NCCCN(C)C)N(Cc3cocn3)[C@H]21.C/C=C\c1ccc2n(c1=O)C[C@@H]1[C@@H](CO)[C@H](C(=O)NCCCN(C)C)N(Cc3cocn3)[C@H]21,1.05 ± 0.054,–
Cn1cnc(S(=O)(=O)N2C[C@H](O)COC[C@@H]3O[C@H](CC(=O)NCc4cccc(F)c4)CC[C@H]32)c1,0.99 ± 0.05,–
COc1ccc2c3c([C@H](CO)N(C[C@]33CCN(CC3)C(=O)c3cnccn3)C(C)=O)n(C)c2c1,1.038 ± 0.0037,–
O=C(C1CCOCC1)N1CC(=O)N2[C@@H](CO)[C@H](c3ccc(/C=C/c4ccccc4)cc3)[C@@H]2C1,0.994 ± 0.088,–
COCC(=O)N1[C@H](CO)[C@@H]2c3ccccc3N(C)C[C@@H]21,1.009 ± 0.0084,–
Cc1noc(C)c1NC(=O)Nc1ccc2c(c1)C(=O)N([C@H](C)CO)C[C@H](C)[C@H](CN(C)S(=O)(=O)c1cccs1)OCCCC[C@H](C)O2,1.04 ± 0.041,–
CO[C@H]1CN(C)C(=O)c2cc(NC(=O)Nc3cc(F)ccc3F)ccc2OC[C@@H](C)NC[C@H]1C,1.09 ± 0.1,–
COCC#Cc1ccc([C@@H]2[C@H]3CN(C(=O)C4CCCCC4)CC(=O)N3[C@H]2CO)cc1,1.03 ± 0.048,–
COC(=O)C[C@H]1CC[C@@H]2[C@H](COC[C@@H](O)CN2S(=O)(=O)c2cn(C)cn2)O1,1.043 ± 0.0028,–
CC(C)CNC[C@@H]1[C@@H](c2ccccc2)[C@@H](CO)N1Cc1ccc(F)cc1,1.01 ± 0.036,–
C/C=C/c1ccc2n(c1=O)C[C@@H]1[C@@H](CO)[C@H](C(=O)NCc3cccc(OC)c3)N[C@H]21.C/C=C\c1ccc2n(c1=O)C[C@@H]1[C@@H](CO)[C@H](C(=O)NCc3cccc(OC)c3)N[C@H]21,0.999 ± 0.063,–
CCc1nc(N2[C@H](C#N)[C@@H](c3ccccc3-c3ccc(F)cc3)[C@@H]2CO)sc1C,1.07 ± 0.071,–
COc1ccc2c3c([C@H](CO)NC[C@]33CCN(Cc4ccc(cc4)-c4ccccn4)CC3)n(C)c2c1,–,0.835 ± 0.04

Structure (SMILES),viability index [1],viability index [2]
O=C(C[C@@H]1CC[C@H]2[C@@H](COC[C@H](O)CN2S(=O)(=O)c2cccc(F)c2)O1)NCc1ccncn1,1.07 ± 0.069,–
C[C@@H]1CN([C@H](C)CO)C(=O)c2cc(C3=CCCC3)cnc2O[C@@H]1CN(C)C(=O)Nc1ccc(C(F)(F)F)cc1,1.01 ± 0.13,–
COc1ccc2c3c([C@H](CO)N(Cc4ccccc4)C[C@]33CN(CC4CC4)C3)n(C)c2c1,0.923 ± 0.022,–
CCCN1C[C@H](C)[C@@H](OC)CN(C)C(=O)c2cc(NS(=O)(=O)c3ccccc3)ccc2OC[C@H]1C,0.932 ± 0.092,–
COc1ccccc1CN1CC2(C1)[C@H](c1ccccc1)[C@@H](CO)N2Cc1ccccc1,–,0.878 ± 0.046
C[C@@H]1CN([C@@H](C)CO)C(=O)c2cc(NC(=O)C3CCCCC3)ccc2O[C@H]1CN(C)Cc1ccc2c(c1)OCO2,1.05 ± 0.016,–
C[C@@H]1CCCCO[C@@H](CN(C)C(=O)c2ccncc2)[C@H](C)CN([C@@H](C)CO)C(=O)c2cc(NS(=O)(=O)c3cccs3)ccc2O1,1.17 ± 0.17,–
CCC(=O)N1[C@H](CO)[C@H](c2ccc(C#CC3(O)CCCC3)cc2)[C@@H]1CNC(C)=O,1.01 ± 0.022,–
O=C(N[C@@H]1C=C[C@@H](CC(=O)N2CCN(c3ccccc3)CC2)O[C@H]1CO)c1ccccc1,1.06 ± 0.14,–
OC[C@H]1[C@@H](c2ccc(-c3cccnc3)cc2)[C@H]2CN(Cc3ccccn3)CCCCN21,1.02 ± 0.035,–
Cc1ccccc1S(=O)(=O)N1C[C@@H]2N[C@H](C1)[C@H]2c1ccc(-c2cccc(C#N)c2)cc1,1.03 ± 0.033,–
C[C@@H]1CN([C@@H](C)CO)C(=O)c2cc(N(C)C)ccc2O[C@@H]1CN(C)Cc1ccc(Oc2ccccc2)cc1,0.926 ± 0.044,–
O=C(Nc1ccccc1F)N1[C@@H]2CNC[C@H]1[C@H]2c1ccc(-c2ccncc2)cc1,1.079 ± 0.0082,–
C[C@H]1CCCCO[C@H](CN(C)C(=O)Nc2ccc(C(F)(F)F)cc2)[C@@H](C)CN([C@@H](C)CO)C(=O)c2cc(NS(=O)(=O)c3cn(C)cn3)ccc2O1,1.01 ± 0.013,–
CCC(=O)N1CC2(C1)[C@@H](c1ccc(-c3ccc(F)cc3)cc1)[C@@H](CO)N2C(C)=O,1.09 ± 0.021,–
C[C@H](CO)N1C[C@H](C)[C@H](CN(C)Cc2ccc(F)cc2)Oc2cc(C#CC(C)(C)O)ccc2S1(=O)=O,0.977 ± 0.069,–
O=C(NC[C@H]1[C@H](c2ccccc2)[C@H](CO)N1Cc1cccnc1)c1ccccn1,0.984 ± 0.023,–
O=C(C[C@@H]1C=C[C@@H](NC(=O)c2ccc3c(c2)OCO3)[C@H](CO)O1)NC1Cc2ccccc2C1,1 ± 0.026,–
N#Cc1cccc(-c2ccc([C@H]3[C@@H](CO)N[C@@H]3CNC(=O)C3CCC3)cc2)c1,1.09 ± 0.084,–
CO[C@H]1CN(C)C(=O)c2ccc(NS(=O)(=O)CC(F)(F)F)cc2OC[C@@H](C)N(C(=O)NC(C)C)C[C@H]1C,0.997 ± 0.11,–
COc1ccccc1C#Cc1ccc([C@H]2[C@H](CO)N3CCCCN(C(=O)C4CCC4)C[C@@H]23)cc1,0.967 ± 0.014,–
CCS(=O)(=O)Nc1ccc2c(c1)C(=O)N(C)[C@H]1CC[C@H](CC(=O)NCCCN3CCOCC3)O[C@H]1CO2,1.047 ± 0.009,–
CO[C@H]1CC[C@H]2CCOc3c(C#N)cccc3C(=O)N(C)C[C@H](OC)[C@@H](C)C(=O)N(C)C[C@H]1O2,1.064 ± 0.0017,–
O=C(NC1CCCC1)N1CCCCN2[C@@H](CO)[C@@H](c3ccc(-c4cccnc4)cc3)[C@@H]2C1,0.934 ± 0.044,–

Structure (SMILES),viability index [1],viability index [2]
C[C@H]1CN([C@@H](C)CO)C(=O)Cc2cc(NC(=O)Nc3ccc(F)cc3)ccc2O[C@@H]1CN(C)S(C)(=O)=O,0.968 ± 0.12,–
Cc1ccc(S(=O)(=O)N(C)C[C@@H]2Oc3c(NS(C)(=O)=O)cccc3C(=O)N([C@@H](C)CO)C[C@H]2C)cc1,1.07 ± 0.068,–
O=C(C[C@H]1C=C[C@@H](NC(=O)Cc2cccnc2)[C@@H](CO)O1)NCc1ccc2c(c1)OCO2,1.12 ± 0.016,–
Cc1ccc(-c2ccc([C@H]3[C@H]4CNC[C@@H]3N4C(=O)NC(C)C)cc2)cc1,1.12 ± 0.069,–
CCNC(=O)[C@@H]1[C@@H](CO)[C@@H]2Cn3c(cccc3=O)[C@@H]2N1C(=O)CC1CC1,1.016 ± 0.0063,–
O=C(NCc1cccc(F)c1)[C@@H]1[C@@H](CO)[C@@H]2Cn3c(ccc(-c4ccncc4)c3=O)[C@H]1N2CC1CC1,1.07 ± 0.025,–
CO[C@@H](CN(C)Cc1ccc(-c2ccccn2)cc1)[C@H](C)CN(C(=O)Nc1ccc(F)cc1)[C@@H](C)CO,1.08 ± 0.049,–
OC[C@@H]1[C@H]2c3ccccc3NC[C@H]2N1Cc1ccccc1Cl,1.02 ± 0.021,–
C[C@@H]1CN([C@H](C)CO)C(=O)CCCn2nncc2CO[C@@H]1CN(C)S(=O)(=O)c1ccc2c(c1)OCCCO2,1.025 ± 0.0016,–
N#C[C@H]1N[C@@H](CO)[C@@H]1c1ccc(C#Cc2ccccc2F)cc1,1.142 ± 0.01,–
COc1cccc(S(=O)(=O)Nc2ccc3c(c2)C(=O)N(C)C[C@@H](OC)[C@@H](C)CN(Cc2ccccc2F)[C@@H](C)CO3)c1,1.034 ± 0.0034,–
COc1cccc(-c2ccc([C@H]3[C@@H]4CN(C(=O)C5CCCCC5)C[C@H]3N4)cc2)c1,1.08 ± 0.039,–
C/C=C/c1ccc([C@H]2[C@@H](CN(C)C(=O)CC3CC3)N(C(=O)C3CC3)[C@H]2CO)cc1,0.977 ± 0.058,–
CO[C@H]1CN(C)C(=O)c2cc(NS(=O)(=O)CC(F)(F)F)ccc2OC[C@@H](C)NC[C@H]1C,1.07 ± 0.0046,–
C[C@@H]1CN([C@H](C)CO)C(=O)c2cc(NC(=O)Nc3cccc4ccccc34)ccc2O[C@@H](C)CCCCO[C@@H]1CN(C)S(=O)(=O)c1cn(C)cn1,0.948 ± 0.077,–
Cc1ccc(CN2CC(=O)N3[C@@H](CO)[C@H](c4ccc(-c5ccccc5F)cc4)[C@@H]3C2)cc1,0.96 ± 0.021,–
CCc1cnc(N2[C@H](CO)[C@@H](c3ccc(C4=CCCCC4)cc3)[C@@H]2C#N)s1,1.085 ± 0.0089,–
O=C(c1cnccn1)N1CC(=O)N2[C@@H](CO)[C@@H](c3ccc(-c4cccc(F)c4)cc3)[C@@H]2C1,1.02 ± 0.058,–
COc1cccc(-c2ccc3n(c2=O)C[C@@H]2N[C@H]3[C@H](C(=O)N3CCCCC3)[C@H]2CO)c1,0.998 ± 0.044,–
CN(C)Cc1cn(CC[C@@H]2CC[C@H](NC(=O)Cc3cccnc3)[C@H](CO)O2)nn1,1.04 ± 0.047,–
COCCNC(=O)C[C@@H]1CC[C@H]2[C@H](COc3ccc(NC(=O)Nc4cccc(F)c4)cc3C(=O)N2C)O1,1.07 ± 0.041,–
COc1ccc(C(=O)Nc2ccc3c(c2)C(=O)N(C)[C@H]2CC[C@@H](CC(=O)NCC4CC4)O[C@H]2CO3)cc1,1.01 ± 0.091,–
